# Measurements published in article PMC10668032.
# The list shows a part of the results. At the low end of the ranking the order means little.
# Target: SIX1 homeodomain (reference allele) (UniProt Q15475)
# Experiment: universal protein binding microarray
# Details: Universal all-10-mer PBM (8x60K, AMADID 030236), 300 nM GST-tagged protein, Alexa Fluor 488 anti-GST; buffer, salt, pH and temperature not stated; high values mean tight binding; most listed sequences are background and not binding sites; double strand, one strand shown
row,Sequence,binding signal [E-score]
1,GCTCATCA,0.0461
2,TCGCTAGA,0.0614
3,AACGCTGG,-0.216
4,CGTCGAAA,-0.135
5,AGCGGAGC,-0.0752
6,CGGCGACA,0.0312
7,AGGCACTA,-0.164
8,CAGAATCG,0.00426
9,CTATTCAC,-0.028
10,CTTGGCGC,-0.298
11,GTGGGGTA,0.283
12,GAATTCTC,-0.095
13,ATATCGAT,0.411
14,CTTCGTGC,-0.183
15,AGTTGGCG,-0.0632
16,CAAGTCGA,-0.0698
17,CCAGATCG,0.292
18,CTGGTGTA,0.313
19,GCGCCCGA,0.03
20,GTTTAGCA,-0.0213
21,ACAAGCAC,-0.171
22,AGCTTGAG,-0.0973

row,Sequence,binding signal [E-score]
1,CTTAGGCA,-0.244
2,CATATTAA,0.175
3,AGTACACG,-0.0344
4,CATTTGTC,-0.205
5,AAACGGAA,-0.199
6,CTCAGCAA,-0.0745
7,GGGACTGA,-0.089
8,AAACGACT,-0.263
9,AGATCCTA,0.215
10,TATTTGGA,-0.137
11,ATGCATGG,0.0583
12,GACCCCCA,0.0315
13,ACGGGGAG,0.061
14,GCATAGGA,-0.0304
15,GAGCCCGA,0.106
16,CACAGATC,0.277
17,AGTATGCG,0.124
18,GGACCCCC,0.00338
19,AAATTCCT,-0.279
20,GGGATCCC,0.415
21,CAGGATTC,-0.0938
22,CACAACCC,-0.181

row,Sequence,binding signal [E-score]
1,AGTTTGCC,-0.176
2,AACGAGTA,-0.0302
3,AGGGCGCG,-0.243
4,ACAGTCAA,-0.281
5,ATAGCCAT,0.218
6,ACGTGTAT,0.256
7,CATTCCAC,-0.104
8,AGAGGGTG,0.0789
9,ACATAAAC,0.092
10,ACCGGCTC,0.143
11,CTCTTAGC,-0.0947
12,GATCCACC,0.394
13,AATGCTGA,0.0327
14,CGTATCAC,0.484
15,AACAGAGA,0.0474
16,GCAAGGCA,-0.185
17,AGACCGAT,0.179
18,AACCCGAA,-0.0401
19,CATCGTTC,-0.147
20,ACTAGCCG,0.183
21,ACGGTTAG,-0.214
22,CTGACTGC,-0.199

row,Sequence,binding signal [E-score]
1,ACTGCGCT,-0.119
2,CACGACGC,-0.218
3,AGCCGGCC,-0.142
4,GTAAGGAC,-0.271
5,AGAACCTG,0.0605
6,CGGCGTGA,-0.0538
7,GGTTAGAA,0.153
8,AGCACCGA,0.074
9,CAAGCTAA,-0.179
10,TCGGTTAA,-0.0168
11,AAATGTCA,-0.273
12,CAGAGAGA,0.00025
13,CTATACCA,0.245
14,TAGCAGGA,-0.043
15,GACGTTAA,-0.141
16,CAGTGTCA,0.249
17,CGGAGATC,0.322
18,GGAGCGTA,0.0084
19,GGGTTCTA,0.000965
20,CGACTTGC,-0.165
21,CCCGTTCG,-0.0656
22,AACTAGGG,-0.237

row,Sequence,binding signal [E-score]
1,GATGACCC,0.269
2,CTTTTTGA,0.0152
3,GTTTGTTA,-0.259
4,CTGGTAAA,-0.152
5,CGCGACAG,-0.069
6,ATAAGACG,0.149
7,ACACTCGG,0.0181
8,AGTTGTCG,-0.207
9,CAGATTTA,-0.0391
10,CAACGTCG,-0.139
11,CCAGATTC,-0.0421
12,CGACTGTA,-0.18
13,AAAGAGCG,-0.244
14,ACAACCTG,-0.147
15,GCTTTCAC,-0.0876
16,CATTTGGA,0.0558
17,AGTGTTCC,-0.176
18,TTACAAAA,-0.337
19,TAGCTTCA,-0.0619
20,ACTTCGTG,-0.204
21,CGCGTGAG,-0.117
22,GACCGTGA,-0.202
